Data from PubChem BioAssay AID1030 (National Center for Advancing Translational Sciences (NCATS), 2008).
Out of some 220,000 compounds screened, about 16,000 (7.3%) were called active. This list was built around the results that the source calls inconclusive (neither active nor inactive); the mix of calls is not that of the screen. The call rests on the fitted dose curve; in most records, active means well fitted inhibition curve with a large enough effect (not every such curve was filed as active); inconclusive means small, poorly fitted or top-dose-only effect, or another doubt; inactive means no such curve, though single readings can be large or run the other way. No potency is given beside an inconclusive call; the fits are too rough.

Target: Aldehyde dehydrogenase 1A1 (Homo sapiens) (UniProt P00352)
Test: qHTS Assay for Inhibitors of Aldehyde Dehydrogenase 1 (ALDH1A1)
Conditions: Purified ALDH1A1, NADH fluorescence, propionaldehyde substrate; series mostly up to 75.3 µM
Potency means the concentration at half of the fitted maximal effect; tags describe the fitted curve by direction and shape.

UniProt P00352, sequence (P00352 whole entry, looked up): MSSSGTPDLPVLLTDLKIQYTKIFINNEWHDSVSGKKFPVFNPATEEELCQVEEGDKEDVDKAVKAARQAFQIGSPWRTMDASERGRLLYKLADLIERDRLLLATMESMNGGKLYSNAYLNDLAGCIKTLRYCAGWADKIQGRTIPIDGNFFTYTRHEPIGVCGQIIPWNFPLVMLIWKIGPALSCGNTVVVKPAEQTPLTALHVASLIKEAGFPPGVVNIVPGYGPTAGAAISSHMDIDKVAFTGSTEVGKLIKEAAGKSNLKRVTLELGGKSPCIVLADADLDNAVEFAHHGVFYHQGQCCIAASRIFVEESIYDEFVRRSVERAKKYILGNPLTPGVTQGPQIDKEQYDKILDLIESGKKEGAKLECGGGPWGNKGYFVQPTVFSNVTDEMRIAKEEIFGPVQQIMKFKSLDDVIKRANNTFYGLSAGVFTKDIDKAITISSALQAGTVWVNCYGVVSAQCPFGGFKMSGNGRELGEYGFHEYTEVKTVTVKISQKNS

SMILES	Potency
CCCCn1c(=O)n(CC(O)c2ccccc2)c(=O)c2c1ncn2C1CCCC1 (configuration not stated)	active: 10 µM
C=CCn1c(=O)/c(=C/c2ccc(O)cc2)s/c1=C(/C#N)c1nnc2n1CCCCC2	inconclusive [inhibitor, single point]
Cc1cnn(CCC(=O)NNC(=S)Nc2cccc(Cl)c2)c1	inconclusive [inhibitor, single point]
COC(=O)C(Oc1ccc2c(-c3ccc(OC)cc3)cc(=O)oc2c1)c1ccccc1 (configuration not stated)	inconclusive [inhibitor, single point]
CCOC(=O)C1CCN(c2c(N3CCCC(C(=O)OCC)C3)c(=O)c2=O)CC1 (configuration not stated)	inconclusive [inhibitor, single point]
S=C(Nc1ccccc1)NC1CCN(Cc2ccccc2)CC1	active: 14.1 µM
CC(=O)Nc1cccc(/C(C)=N/NC(=O)c2ccc(CN3CCOCC3)cc2)c1	inactive
Cc1ccc(C(=O)Cn2c(C(=O)/C=C/c3ccccc3)nc3ccccc32)cc1	inconclusive [inhibitor, single point]
CC(N)=NCCCC(N)C(=O)O (configuration not stated)	inactive
COCc1[nH]nc2c1C(c1ccccc1Cl)C(C#N)=C(N)O2 (configuration not stated)	inconclusive [inhibitor, single point]
COc1ccc(/C=C/C(=O)OCC(=O)Nc2ccc(Cl)cn2)cc1	inconclusive [inhibitor, single point]
CCOC(=O)Cc1nnc(NC(=O)CSc2ccc(C)cc2)s1	inconclusive [inhibitor, single point]
COCC1CCCCN1Cc1cn(-c2ccccc2)nc1-c1ccc2c(c1)OCO2 (configuration not stated)	inconclusive [inhibitor, single point]
Cc1cc(C=O)c(C)n1-c1ccc(N2CCCCC2)c([N+](=O)[O-])c1	inactive
Nc1ccc(Oc2ccc([N+](=O)[O-])cc2[N+](=O)[O-])cc1	inconclusive [inhibitor, single point]
N#Cc1cc2c(nc1SCc1nc3ccccc3[nH]1)CCC2	inconclusive [inhibitor, single point]
Clc1ccccc1CSc1nncn1NC/C=C/c1ccccc1	inactive
O=c1[nH][nH]c(=S)c(=O)[nH]1	inconclusive [inhibitor, partial curve]
CC(=O)c1cc(C#N)c(SCC(=O)C(C)(C)C)nc1C	inconclusive [inhibitor, single point]
Cc1ccc(-c2nc3ccccc3nc2NN)cc1	inconclusive [inhibitor, partial curve]
CCSc1nc(-c2cccnc2)ccc1C#N	inconclusive [inhibitor, partial curve]
CCC1(C)N(O)C(C)(C)C(c2ccc(F)cc2)=[N+]1[O-] (configuration not stated)	inactive
O=C(CCCc1c[nH]c2ccccc12)NCC1COc2ccccc2O1 (configuration not stated)	inactive
CN(C)S(=O)(=O)c1cccc(-c2cn3cccnc3n2)c1	inconclusive [inhibitor, partial curve]

SMILES	Potency
Cc1cc(=O)[nH]c(N=N/C(=N/Nc2ccccc2C)c2ccccc2)n1	inconclusive [inhibitor, single point]
N#Cc1cc2c(nc1SCC(=O)Nc1sc3c(c1C#N)CCC3)CCCCCC2	active: 15.8 µM
COC(=O)c1ccccc1NC(=O)c1sc(=S)n(C)c1N	active: 20 µM
C=CCNC(=O)CSc1ncc2c(n1)-c1c(csc1SC)CC2	inconclusive [inhibitor, partial curve]
CSc1nc2sc3c(c2c2nncn12)CCC3	active: 7.94 µM
Cc1cc(NC(=O)CSCC(=O)N(c2cccc(Cl)c2)C(C(=O)NC2CCCCC2)c2ccc(O)c(O)c2)no1 (configuration not stated)	inactive
COc1ccc(C(OCC2CO2)c2ccc(OC)cc2)cc1 (configuration not stated)	inactive
Cc1cc2occ(CC(=O)NC3CCCc4ccccc43)c2cc1C (configuration not stated)	active: 2.24 µM
O=C(NC(=S)Nc1ccc(N2CCOCC2)c(Cl)c1)c1sc2ccccc2c1Cl	active: 3.55 µM
COc1ccc(OC)c(-c2cc(C(=O)Nc3cccc(Cl)c3)no2)c1	inconclusive [inhibitor, partial curve]
CC(=O)NC1=NC(=O)/C(=C/c2cc(C)n(-c3ccc(NC(C)=O)cc3)c2C)S1	inconclusive [inhibitor, partial curve]
COc1ccc(NS(=O)(=O)c2ccc(NC(=O)c3ccc(CN4CCOCC4)cc3)cc2)cc1	inactive
COc1ccc(CN2CCNC(=O)C2CC(=O)NCCC2=CCCCC2)cc1OC (configuration not stated)	inconclusive [inhibitor, single point]
O=C(Nc1cc(Cl)cc(Cl)c1)C(NCCO)c1ccccc1 (configuration not stated)	inconclusive [inhibitor, single point]
COc1ccc(-n2cc(-c3ccccc3)c3c(NCCCN4CCOCC4)ncnc32)cc1	inconclusive [inhibitor, single point]
CN(Cc1nccn1C)C(=O)CC1C(=O)NCCN1CC(c1ccccc1)c1ccccc1 (configuration not stated)	inactive
COc1cc2c(cc1OC)CN(CC(=O)Nc1ccc(C)cc1)CC2	inconclusive [inhibitor, single point]
CCOC(=O)c1ccc(NC(=O)CC2C(=O)N(c3ccc(F)cc3)C(=O)N2CCC(C)C)cc1 (configuration not stated)	inconclusive [inhibitor, single point]
COC(=O)c1ccc2c(=O)n(Cc3ccco3)c(SCC(=O)Nc3ccc(C)c(Cl)c3)nc2c1	inconclusive [inhibitor, partial curve]
CN(Cc1ccccc1)c1nc2c(c(=O)[nH]c(=O)n2C)n1CCCc1ccccc1	inconclusive [inhibitor, single point]
O=S(=O)(Nc1ccncc1Cl)c1ccc2ccccc2c1	inactive
Cc1cc(=O)oc(C)c1C(=O)NCCN(C)Cc1ccccc1	inactive
CC(C)CCNC(=O)NC(=O)COC(=O)C1CCN(S(=O)(=O)c2ccccc2F)CC1	inactive
